{"source": "PubChem BioAssay AID1347073", "about": "(National Center for Advancing Translational Sciences (NCATS), 2019)", "note": "In all, about 45,000 compounds went through this assay and about 200 (0.44%) were called active. Another 7% or so got no clear call; they are omitted. The call rests on the fitted dose curve; in most records, active means well fitted activation curve with a large enough effect; inconclusive means small, poorly fitted or top-dose-only effect; inactive means no such curve, though single readings can be large or run the other way. The list shows a part of the results. Potency means the concentration at half of the fitted maximal effect.", "data": [{"assay": "qHTS of TDP-43 Inhibitors: NCGC Sytravon Library Screen; further: nearly all actives have a fitted effect of over 55% in size; on growth rescue (activation): 0% is about no effect", "details": "yeast TDP-43 toxicity rescue, BacTiter-Glo growth, 24 h; series mostly up to 46.1 µM; growth rescue (activation): at the top concentration", "in_short": "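TDP-43-expressing yeast, pregrown in raffinose, seeded at OD600 0.02 in galactose medium with compound for 24 hr at 30 deg C. Growth read by BacTiter-Glo luminescence, so rescue of toxicity appears as activation.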", "values": [{"smiles": "CC(=O)NC(CC(=O)NCC(=O)Nc1ccc(F)c(F)c1)c1ccccc1", "note": "(stereo not drawn)", "growth rescue (activation)": "inactive: 4.85%"}, {"smiles": "O=[N+]([O-])c1ccc(O)c(C=Nc2cccc3ncccc23)c1", "growth rescue (activation)": "inactive: -32.2%"}, {"smiles": "COc1ccc(NC(=O)NC2(C(=O)N3CCCC3)CCCCC2)cc1", "growth rescue (activation)": "inactive: -1.42%"}, {"smiles": "C/C(=N/NC(=O)CN1CCN(Cc2ccccc2Cl)CC1)c1ccncc1", "growth rescue (activation)": "inactive: 14.2%"}, {"smiles": "CC(=O)c1cc2cccc(OC3(C)CCN(Cc4ccc5ccccc5c4)C3)c2o1", "note": "(stereo not drawn)", "growth rescue (activation)": "inactive: 3.38%"}, {"smiles": "CC(C)CC(C(=O)OCC(=O)c1c(N)n(C)c(=O)n(C)c1=O)N1C(=O)c2ccccc2C1=O", "note": "(stereo not drawn)", "growth rescue (activation)": "inactive: -6.54%"}, {"smiles": "O=c1[nH]c(CNCc2cccnc2)nc2ccccc12", "growth rescue (activation)": "inactive: 0.688%"}, {"smiles": "CN(Cc1cccnc1)C(=O)CC1C(=O)NCCN1Cc1ccc(-c2ccccc2)cc1", "note": "(stereo not drawn)", "growth rescue (activation)": "inactive: 15.2%"}, {"smiles": "CCC(C)NC(=O)CCn1c(-c2ccccc2)cc(C(C)=O)c1C", "note": "(stereo not drawn)", "growth rescue (activation)": "inactive: -5.58%"}, {"smiles": "C=CCSc1nc2sc3c(c2c(=O)[nH]1)CC(C)(C)OC3", "growth rescue (activation)": "inactive: -3.72%"}, {"smiles": "COc1cc(/C=C/C(=O)O)cc(S(=O)(=O)Nc2ccc3c(c2)OCO3)c1OC", "growth rescue (activation)": "inactive: -21.7%"}, {"smiles": "O=C(O)COc1ccc(/C=N/NC(=O)c2cn(-c3ccccc3)nc2-c2ccccc2)cc1", "growth rescue (activation)": "inactive: 5%"}, {"smiles": "CN(C)/C=C\\C(=C/C(=O)C(F)(F)F)Nc1ccccc1Oc1ccccc1", "growth rescue (activation)": "inactive: -1.67%"}, {"smiles": "COCC(C)OC(=O)c1c(N)n(CCCN2CCOCC2)c2nc3ccccc3nc12", "note": "(stereo not drawn)", "growth rescue (activation)": "inactive: -5.66%"}, {"smiles": "COc1ccc(C)cc1S(=O)(=O)N(C)CC(=O)NC1CCCCCC1", "growth rescue (activation)": "inactive: -6.39%"}, {"smiles": "Cc1cc2cc(CN(Cc3ccco3)C(=O)C3CCCCC3)c(=O)[nH]c2cc1C", "growth rescue (activation)": "inactive: -17.4%"}, {"smiles": "CC(C)C(=O)Nc1ccc(N2CCOCC2)c(S(=O)(=O)Nc2ccccc2Cl)c1", "growth rescue (activation)": "inactive: -7.24%"}, {"smiles": "O=C1OC(/C(=C\\NCc2ccccc2)[N+](=O)[O-])c2ccccc21", "note": "(stereo not drawn)", "growth rescue (activation)": "inactive: 0.546%"}, {"smiles": "Cc1ccc(S(=O)(=O)NN2C(=O)c3ccccc3NC2c2cccc(O)c2)cc1", "note": "(stereo not drawn)", "growth rescue (activation)": "inactive: 4.57%"}, {"smiles": "CC(C)c1ccc(N(C(=O)CNC(=O)c2ccco2)C(C(=O)NC2CCCC2)c2ccncc2)cc1", "note": "(stereo not drawn)", "growth rescue (activation)": "inactive: 10.6%"}, {"smiles": "CCc1nc2ccc(C(=O)NCCC(C)C)cn2c1N(C)Cc1ccc(OC)cc1", "growth rescue (activation)": "inactive: 15.5%"}, {"smiles": "CC1CN(C(=O)COC(=O)c2ccc(S(=O)(=O)N(C)C)cc2)CC(C)O1", "note": "(stereo not drawn)", "growth rescue (activation)": "inactive: 10.8%"}, {"smiles": "CC(C)CNC(=O)CN(c1cccc(Cl)c1)S(C)(=O)=O", "growth rescue (activation)": "inactive: -9.56%"}, {"smiles": "COc1cccc(C(=O)NCCCNC(=O)c2cccnc2)c1", "growth rescue (activation)": "inactive: 0.216%"}, {"smiles": "O=[N+]([O-])c1ccccc1Oc1ccc(C(F)(F)F)cn1", "growth rescue (activation)": "inactive: 4.2%"}, {"smiles": "COc1ccc(NC(=S)N2CCNC(=O)C2CC(=O)Nc2ccc(C)cc2)cc1", "note": "(stereo not drawn)", "growth rescue (activation)": "inactive: 29.5%"}, {"smiles": "O=C(CSc1n[nH]c(=O)n1C1CC1)Nc1ccc(OC(F)(F)F)cc1", "growth rescue (activation)": "inactive: 9.06%"}, {"smiles": "Cc1onc(-c2c(Cl)cccc2Cl)c1C(=O)Nc1ccc(Cl)cn1", "growth rescue (activation)": "inactive: 21%"}, {"smiles": "CC1CCN(CC(=O)Nc2cccc(C(=O)Nc3cccc(C(F)(F)F)c3)c2)CC1", "growth rescue (activation)": "inactive: 8.36%"}, {"smiles": "COC(=O)COc1ccccc1/C=C1/NC(=O)NC1=O", "growth rescue (activation)": "inactive: 19.8%"}, {"smiles": "CC1CCCN(C(=O)CCNC(=O)Cn2cnc3ccccc3c2=O)C1", "note": "(stereo not drawn)", "growth rescue (activation)": "inactive: 2.81%"}, {"smiles": "CCC1CCCCN1CCCNC(=O)c1ccc2c(=O)n(CCOC)c(=O)[nH]c2c1", "note": "(stereo not drawn)", "growth rescue (activation)": "inactive: 6.78%"}, {"smiles": "COc1ccc(C=C2C(=O)c3ccccc3C2=O)cc1O", "growth rescue (activation)": "inactive: -31%"}, {"smiles": "CCCS(=O)(=O)N1CCN(S(=O)(=O)c2ccccc2[N+](=O)[O-])CC1", "growth rescue (activation)": "inactive: -4.02%"}, {"smiles": "COc1ccc(NCc2ccc([N+](=O)[O-])s2)c(OC)c1", "Potency": "active: 12.6 µM"}, {"smiles": "CC1(C)C(=O)C2(CCCCC2)C(=O)OC1c1cccn1-c1ccc([N+](=O)[O-])cc1", "note": "(stereo not drawn)", "growth rescue (activation)": "inactive: 14.5%"}, {"smiles": "CC(=O)Nc1nnc(SCC(=O)NC2CC2)s1", "growth rescue (activation)": "inactive: 4.46%"}, {"smiles": "Nc1ccc(C(=O)NCCCSc2ccccc2)cc1[N+](=O)[O-]", "growth rescue (activation)": "inactive: 0.956%"}, {"smiles": "COc1cccc(C2CC(=O)C3=C(C2)Nc2ccccc2N(C(=O)CCC(=O)O)C3c2ccc(F)cc2)c1", "note": "(stereo not drawn)", "growth rescue (activation)": "inactive: -9.18%"}, {"smiles": "COc1cccc(C(NC(C)=O)c2nc(-c3cccc(C(C)C)c3)cs2)c1", "note": "(stereo not drawn)", "growth rescue (activation)": "inactive: 22.6%"}, {"smiles": "O=C(NC(CO)Cc1ccc([N+](=O)[O-])cc1)C(Cl)Cl", "note": "(stereo not drawn)", "growth rescue (activation)": "inactive: -25%"}, {"smiles": "Cc1cc2c(c(N)n1)c(=O)oc1ccccc12", "growth rescue (activation)": "inactive: -9.18%"}, {"smiles": "CC(NC(=S)Nc1c(Cl)cccc1OC(F)F)C(C)(C)C", "note": "(stereo not drawn)", "growth rescue (activation)": "inactive: -2%"}, {"smiles": "Cc1ccnc(NC(=O)CCC(=O)N(CC(=O)NCc2ccc(F)cc2)CC2CCCO2)c1", "note": "(stereo not drawn)", "growth rescue (activation)": "inactive: -16.1%"}, {"smiles": "O=C(COC(=O)C1Cc2ccccc2CN1C(=O)c1ccccc1)Nc1ccc(SC(F)F)cc1", "note": "(stereo not drawn)", "growth rescue (activation)": "inactive: 8.21%"}, {"smiles": "O=C(/C=C/c1ccc(Cl)cc1)NCc1ccco1", "growth rescue (activation)": "inactive: -7.19%"}, {"smiles": "CC1CCCN(CC(O)COc2ccc(-c3ccccc3)cc2)C1", "note": "(stereo not drawn)", "growth rescue (activation)": "inactive: -75.3%"}, {"smiles": "CCOC(=O)N1CCN(C(=O)c2c(-c3c(Cl)cccc3Cl)noc2C)CC1", "growth rescue (activation)": "inactive: 14.2%"}, {"smiles": "O=[N+]([O-])c1ccc(NC(=S)N2CCOCC2)cc1", "growth rescue (activation)": "inactive: 16.9%"}, {"smiles": "CC(=O)c1ccc(N2CCN(Cc3nc4ccccc4[nH]3)CC2)cc1", "growth rescue (activation)": "inactive: 4.46%"}, {"smiles": "Cn1cc([N+](=O)[O-])c(C(=O)N/N=C/c2ccc([N+](=O)[O-])cc2)n1", "growth rescue (activation)": "inactive: 0.117%"}, {"smiles": "Cc1ccc(CONC(=O)c2ccccc2)cc1", "growth rescue (activation)": "inactive: 24.3%"}, {"smiles": "CCOc1ccccc1N(CC(=O)NCCOC)C(=O)CCC(=O)Nc1ccccn1", "growth rescue (activation)": "inactive: 3.44%"}]}]}
